Data on 172 sequences can be found in publication PMC10668032.

Some of the results follow. At the low end of the ranking, values are background and their order means little.

The target in the experiment is SIX1 homeodomain (reference allele) (UniProt Q15475). Nature of the experiment: universal protein binding microarray. As to conditions: Universal all-10-mer PBM (8x60K, AMADID 030236), 300 nM GST-tagged protein, Alexa Fluor 488 anti-GST; buffer, salt, pH and temperature not stated; high values mean tight binding; most listed sequences are background and not binding sites; double strand, one strand shown.
Consider CCGCTAGG, for which the binding signal was -0.0855 E-score.
For the sequence CAGGGTTA, the binding signal is -0.0346 E-score.
Then AAGCATGC, with -0.306 E-score.
As to ACAAGGGT, the binding signal came to 0.0328 E-score.
Take ACAGCGAA: the binding signal is -0.127 E-score.
Regarding AGTACAAA, the binding signal is -0.135 E-score.
The same measure for CGGCAGGA: -0.232 E-score.
The same measure for ATTAGGAG: 0.0574 E-score; for AGAACAGA: -0.196 E-score.
With TAGGTGCA, the binding signal is -0.154 E-score.
The same measure for AAATGCTG: -0.179 E-score; for ACGGGTTA: -0.103 E-score.
AGGCCTCC: the binding signal was -0.129 E-score.
With CCCGAATA, the binding signal amounted to 0.0806 E-score.
The same measure for CAGATACA: 0.355 E-score; for GGCTATCA: 0.392 E-score.
On to AGTCAGGG, for which the binding signal was -0.146 E-score.
As to AACGGCCG, the binding signal is -0.245 E-score.
Then CTAAGTAG, with -0.0326 E-score; and CGCATCAG, with 0.0639 E-score.
The same measure for ACAGCATC: -0.152 E-score.
With CCTGATGA, the binding signal turned out to be 0.0265 E-score.
On to CTGTTGGC, for which the binding signal was -0.0951 E-score.
Then GGATACGA, with 0.36 E-score.
For the sequence ACACGGGG, the binding signal turned out to be 0.148 E-score.
For the sequence TGAACTAA, the binding signal is -0.115 E-score.
The same measure for GGAGATCA: 0.386 E-score; for AGCCTAGG: -0.138 E-score.
Regarding GAGAAGAC, the binding signal worked out at 0.0224 E-score.
As to AGGCTATC, the binding signal is 0.329 E-score.
Consider CCTGCGGA, for which the binding signal is 0.102 E-score.
Regarding ATCCGGAC, the binding signal is 0.24 E-score.
For the sequence AAGGGCTG, the binding signal was -0.205 E-score.
For CATGTTGA, the binding signal was 0.214 E-score.
Then TAGAGGAA, with 0.0565 E-score; and AACCGCAG, with -0.0717 E-score.
The same measure for AAACGTAG: -0.0936 E-score.
Consider AGCAGTTC, for which the binding signal is -0.0895 E-score.
For ATATAGGA, the binding signal was 0.281 E-score.
Then ACGGCTGC, with -0.0906 E-score; and CGGGAGAC, with -0.0662 E-score.
As to GCAAACTA, the binding signal is -0.0166 E-score.
Consider CGGACGTC, for which the binding signal was -0.14 E-score.
Then TAGTCAAA, with -0.0622 E-score; and AGGGGGGA, with 0.206 E-score.
The same measure for GCGCCAGC: -0.209 E-score; for CACGTTGA: -0.0354 E-score.
Turning to GAACGCGA, the binding signal is -0.0318 E-score.
Take GTAGCGAA: the binding signal is -0.00606 E-score.
With AGTGTACC, the binding signal came to 0.16 E-score.
Then TGAAAGCA, with -0.112 E-score.
On to ACCGTGTG, for which the binding signal was -0.01 E-score.
As to ATTACTCG, the binding signal was -0.0411 E-score.
Then ATCCTCCG, with 0.324 E-score; and GGCCGGCA, with -0.155 E-score; and CGCGCACG, with -0.0928 E-score.
In the case of ACTTCGGG, the binding signal was -0.0525 E-score.
With GACCCGTC, the binding signal was -0.0551 E-score.
CGTCGGGA: the binding signal worked out at 0.0309 E-score.
Then CGACTGAG, with -0.196 E-score; and ACAAACTG, with -0.186 E-score.
As to AAGACGCC, the binding signal was -0.00505 E-score.
The same measure for CGGACCCG: -0.128 E-score.
As for ATACTGGA, the binding signal turned out to be 0.325 E-score.
In the case of CGGGAGGA, the binding signal is -0.0903 E-score.
As for CCATACTA, the binding signal was determined as 0.0086 E-score.
For GTTCCGCA, the binding signal was -0.0215 E-score.
Regarding ATCCTGCG, the binding signal came to 0.142 E-score.
For CCAATGAG, the binding signal is -0.0358 E-score.
With CTAAACCC, the binding signal was 0.14 E-score.
With CGTCTTCA, the binding signal amounted to 0.0171 E-score.
Consider ACCTTATC, for which the binding signal is 0.143 E-score.
Take TAAAGCCA: the binding signal was -0.0996 E-score.
In the case of CCCCAATA, the binding signal was 0.0977 E-score.
Regarding AGTTAGGC, the binding signal is -0.289 E-score.
In the case of AAGCCTGA, the binding signal turned out to be 0.0668 E-score.
Consider ATATACTC, for which the binding signal was found to be 0.354 E-score.
With AACACGCA, the binding signal is -0.0659 E-score.
In the case of ACCAATCG, the binding signal is -0.0164 E-score.
Then CTGTTGAC, with -0.352 E-score; and CAACCAGA, with -0.0279 E-score; and ATCACGAC, with 0.18 E-score.
With GAGCCACA, the binding signal was -0.0994 E-score.
Regarding AACGCTGC, the binding signal is -0.204 E-score.
Take GACGCCCC: the binding signal was 0.0241 E-score.
Regarding TCAGTGCA, the binding signal is -0.136 E-score.
ATGCAGAC: the binding signal was -0.0038 E-score.
Turning to TGACAGAA, the binding signal was -0.13 E-score.
With CCGTGGAC, the binding signal is -0.106 E-score.
The same measure for ACAGATAT: 0.356 E-score.
With AGCAACAA, the binding signal is -0.139 E-score.
As for CCAGCAAC, the binding signal is -0.128 E-score.
CAATGCCC: the binding signal is -0.0333 E-score.
Take ATCGTAAC: the binding signal amounted to 0.215 E-score.
Consider AAACCGTT, for which the binding signal was -0.0723 E-score.
Consider AAGCTTAG, for which the binding signal is -0.0745 E-score.
For the sequence AACTCTTG, the binding signal was -0.0598 E-score.
For ACGATCCT, the binding signal came out at 0.347 E-score.
As for ATCCGGCG, the binding signal was 0.345 E-score.
Turning to CCCTAGCG, the binding signal was -0.224 E-score.
Regarding CTCTTTTC, the binding signal is -0.138 E-score.
Consider GCATAAAA, for which the binding signal was found to be 0.00178 E-score.
Turning to ATCCTTTG, the binding signal came to 0.204 E-score.
The same measure for GCCTAGAC: -0.124 E-score.
As to ATGCGTTC, the binding signal was determined as 0.0554 E-score.
Take CAAAATTA: the binding signal was -0.1 E-score.
For the sequence AGCCTGCA, the binding signal is -0.108 E-score.
The same measure for CATACTAC: 0.0535 E-score; for ACATTACT: -0.188 E-score; for CTGATGCC: 0.123 E-score.
Regarding AAGAATGA, the binding signal was 0.0726 E-score.
As for ATAGTTCG, the binding signal is -0.0689 E-score.
The same measure for CCGCAGAC: -0.154 E-score; for AAATGCAC: -0.222 E-score; for CCAAAGAA: -0.182 E-score.
Consider CTATCGAC, for which the binding signal was determined as 0.0705 E-score.
GTTATATA: the binding signal is 0.145 E-score.
GAAATGGA: the binding signal is -0.162 E-score.
GCACGTCC: the binding signal was -0.131 E-score.
Regarding ACGGTCAT, the binding signal was -0.0176 E-score.
Then CATGCCAA, with -0.124 E-score; and AGCTCATG, with 0.0544 E-score; and GGTACACA, with -0.128 E-score.
On to ACGGCCGT, for which the binding signal was -0.149 E-score.
Consider CGGAGCGA, for which the binding signal was -0.124 E-score.
On to CCTCGGAC, for which the binding signal was -0.0969 E-score.
Regarding ATGTACAT, the binding signal is -0.152 E-score.
Regarding CGGAGGTC, the binding signal is -0.112 E-score.
The same measure for GGCGAGGA: -0.076 E-score.
For GAACGGGA, the binding signal was -0.0934 E-score.
Then GTGGAATA, with 0.094 E-score; and AAAGGACA, with -0.0465 E-score; and ATTAAAAC, with 0.131 E-score.
Consider AATTCGGA, for which the binding signal stood at 0.047 E-score.
The same measure for AAGCGCCT: -0.145 E-score.
Regarding CACATCTC, the binding signal is -0.0303 E-score.
As to AACCCGAG, the binding signal amounted to 0.18 E-score.
Take CCCTGGCG: the binding signal is -0.0981 E-score.
In the case of CTCTCGAC, the binding signal is -0.0533 E-score.
For CAGTGCAC, the binding signal was -0.107 E-score.
With ATGAGACA, the binding signal stood at 0.23 E-score.
CACAACAC: the binding signal was -0.0506 E-score.
Consider ATTCCAGA, for which the binding signal was 0.0677 E-score.
AGTTGGAT: the binding signal was 0.216 E-score.
On to AGATGTGG, for which the binding signal was -0.0918 E-score.
Then ACAATGCG, with -0.0263 E-score; and TCCTTGAA, with -0.181 E-score.
Then GGTGGGAC, with -0.186 E-score.
For ACCCCAAC, the binding signal was 0.101 E-score.
On to GCTATCGA, for which the binding signal was 0.253 E-score.
In the case of TCGTACAA, the binding signal is -0.187 E-score.
As for TCTAACCA, the binding signal is -0.12 E-score.
GCACGGAA: the binding signal is -0.244 E-score.
CCGGTTGC: the binding signal was determined as 0.0289 E-score.
Then GAAAATGC, with -0.333 E-score; and GACGGATC, with 0.358 E-score.
On to AGGAGTGC, for which the binding signal is -0.0354 E-score.
Consider AAGGAGGG, for which the binding signal was -0.000575 E-score.
Then CCAGAATA, with 0.142 E-score.
The same measure for GCTGCGAA: -0.0649 E-score.
For the sequence AACCCTTC, the binding signal came to 0.0703 E-score.
As to CGTAGTAC, the binding signal is -0.0844 E-score.
Then AGATAATA, with 0.245 E-score; and ACCGGTAT, with 0.37 E-score.
Regarding CAAGTAGA, the binding signal is 0.0844 E-score.
With AGTAACTC, the binding signal is -0.0483 E-score.
Turning to GGCCAGGA, the binding signal was -0.185 E-score.
With GATGCATC, the binding signal is -0.0464 E-score.
In the case of CAGGATCC, the binding signal is 0.354 E-score.
As for ACTTCCGG, the binding signal was -0.187 E-score.
For the sequence ACCGCACT, the binding signal is -0.0203 E-score.
With ATATGGAC, the binding signal was found to be 0.173 E-score.
